# Hit rate of the full screen: of about 54,000 compounds, about 120 (0.22%) were called active. Inconclusive results, whose numbers are uncertain, are shown with a selection of clear calls. Calls come from the whole dose curve; as a rule, active = well fitted inhibition curve with a large enough effect; inconclusive = small, poorly fitted or top-dose-only effect, or effect the other way; inactive = flat fitted curve, though single readings scatter. Potencies of inconclusive entries are left out as doubtful fits.
# Target: Fumarate hydratase, mitochondrial (Homo sapiens) (UniProt P07954)
# Chain of UniProt P07954 (P07954 whole entry, looked up): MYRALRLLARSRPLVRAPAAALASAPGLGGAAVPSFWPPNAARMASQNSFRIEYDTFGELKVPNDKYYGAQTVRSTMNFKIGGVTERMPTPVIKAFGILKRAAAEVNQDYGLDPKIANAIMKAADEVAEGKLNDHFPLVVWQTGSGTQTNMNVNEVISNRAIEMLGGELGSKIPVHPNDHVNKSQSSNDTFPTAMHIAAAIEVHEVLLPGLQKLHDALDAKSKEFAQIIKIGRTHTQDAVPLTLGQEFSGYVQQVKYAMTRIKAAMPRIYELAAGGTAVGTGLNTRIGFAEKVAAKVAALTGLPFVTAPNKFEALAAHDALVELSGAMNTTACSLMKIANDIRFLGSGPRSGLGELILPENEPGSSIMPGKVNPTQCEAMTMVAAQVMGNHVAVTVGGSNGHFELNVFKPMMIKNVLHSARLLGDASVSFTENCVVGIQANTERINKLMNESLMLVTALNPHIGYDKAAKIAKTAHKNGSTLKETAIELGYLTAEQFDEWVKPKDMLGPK
# Assay: Identification of activators of human fumarate hydratase by quantitative high-throughput screening; note: the screen sought activators but most active calls are inhibition curves; nearly all actives have a fitted effect of over 45% in size
# Conditions: FH coupled MDH/diaphorase resazurin fluorescence, 15 min; activity change, negative = inhibition: at 79.9 µM (top of the series)
# Source text: Fumarate hydratase (FH) is a metabolic enzyme that is part of the Krebs-cycle, and reversibly catalyzes the hydration of fumarate to malate. Mutations of the FH gene have been associated with fumarate hydratase deficiency (FHD), hereditary leiomyomatosis, renal cell cancer (HLRCC), and other diseases. Currently there are no high-quality small molecule probes for studying human fumarate hydratase. To address this, we developed a quantitative high throughput screening (qHTS) FH assay and screened a total of 57,037 compounds in dose-response. While no inhibitors of FH were confirmed, a series of phenyl-pyrrolo-pyrimidine-diones (12 compounds) were identified as activators of human fumarate hydratase. […] The binding of two compounds from the series to human fumarate hydratase was confirmed by microscale thermophoresis. The low hit rate in this screening campaign confirmed that FH is a "tough target" to modulate, and the small molecule activators of human fumarate hydratase reported here may serve as a starting point for further optimization and development into cellular probes of human FH and potential drug candidates.
# For primary high-throughput screen, 3 ul of FH solution (containing 13.33nM human fumarate hydratase, 13.33IU/ml malic dehydrogenase, 0.2mM NAD, 0.067mg/ml diaphorase and 0.067mM resazurin in the assay buffer (50 mM Tris pH 8.0, 5 mM MgCl2, 0.01% Brij 3) was dispensed into each well in a black solid bottom 1536-well assay plate (Greiner Bio-One) using a BioRAPTR FRD dispenser (Beckman Coulter, Brea, CA). A 1536-well pintool dispenser outfitted with 20 nl pins (Wako Automation, San Diego, CA) was used to transfer 20 nL of DMSO-solubilized compound (Cherrypick plates) to each 1536-well assay plate. Each compound was screened at five concentrations: 15 nM, 151 nM, 1.5 uM, 15.4 uM, 76.9 uM. Following compound transfer, plates were incubated in room temperature for 10 minutes. 1 uL of substrate solution containing fumaric acid (160 uM) was dispensed via BioRAPTR FRD to initiate the reaction. Plates were immediately transferred to a ViewLux microplate imager (PerkinElmer, Waltham, MA), and any resulting resorufin fluorescence was measured (exitation/emission, 525/598 nm) at 0 and 15 minutes. The exposure time is 1 second. Fluorescence from each well was normalized using enzyme-free and DMSO-treated control wells on each plate, and changes in fluorescence (delta RFU) were calculated using the difference in fluorescent signal for each well at 15 minutes versus 0 minutes.
# % is set by controls: 0 for no effect and ±100 for the full control effect; potency is the fitted concentration of half-maximal effect; tags give direction and shape of the fitted curve.
SMILES,Potency,"activity change, negative = inhibition"
O=C(Nc1ccc(-c2cc(C(F)(F)F)nn2-c2ccccc2)cc1)c1cccc(F)c1,"inconclusive [inhibitor, full curve, poor fit]",–
COc1ccc(CNC(=O)CN(c2ccc(C)cc2)S(=O)(=O)c2c(C)n[nH]c2C)cc1,inactive,–
COc1cc(C)c(Cl)cc1S(=O)(=O)NCCc1c(C)[nH]c2ccccc12,"inconclusive [inhibitor, single point]",–
O=C(CSc1ncc(CO)n1Cc1ccccc1)Nc1nc2ccccc2s1,inactive,–
Cc1ccc(-c2nc3n(n2)C(c2ccccc2C)C=C(c2ccc(Cl)cc2)N3)cc1 (stereo unspecified),"inconclusive [inhibitor, partial curve, poor fit]",–
Cc1cc(C)cc(NC(=O)CN2C(=O)CSc3ccc(S(=O)(=O)N(C)C)cc32)c1,"inconclusive [inhibitor, single point]",–
CCC1CN(C(=O)NCc2ccc(C)cc2)c2cc(C)ccc2O1 (stereo unspecified),"inconclusive [inhibitor, single point]",–
Cc1ccc(-c2c(CN3CCN(c4cccc(C)c4C)CC3)csc2C)cc1,"inconclusive [inhibitor, partial curve, poor fit]",–
CN(Cc1ccccc1)C(=O)CSc1c2c(nc3ccc(Cl)cc13)CCCC2,"inconclusive [inhibitor, partial curve, poor fit]",–
CCOC(=O)c1ccccc1NC(=O)N(Cc1ccc(CC)cc1)Cc1cn[nH]c1-c1ccc(OC)cc1,"inconclusive [inhibitor, partial curve]",–
Cc1ccc(NC(=O)c2cccc(C(C)(C)C#N)c2)cc1Nc1ccc2ncn(C)c(=O)c2c1,"inconclusive [inhibitor, partial curve, poor fit]",–
CC(=O)c1ccc2c(c1)C(O)C(C(C)(C)O)O2 (stereo unspecified),inactive,–
CCc1ccccc1NC(=O)CCc1c(C)nc2cc(-c3ccccc3)nn2c1C,inactive,–
CC(=O)N1CCc2c(sc3c2c(=O)n(CCc2ccccc2)c(=O)n3Cc2ccc(F)cc2)C1,"inconclusive [inhibitor, partial curve]",–
Cc1cc2nn(-c3ccccc3)nc2cc1NC(=O)Cc1ccc(Cl)cc1,inactive,–
CCOc1ccc(CCNC(=O)CSCc2nc(-c3cccc(C)c3)oc2C)cc1OCC,"inconclusive [inhibitor, single point]",–
CCOc1ccccc1N(CC)C(=O)c1ccc2c(=O)n3c(nc2c1)CCCCC3,"inconclusive [inhibitor, single point]",–
CC(CC(=O)NCc1ccc(Cl)cc1Cl)CC1=NS(=O)(=O)c2ccccc2N1 (stereo unspecified),inactive,–
COc1ccccc1NC(=O)C1=C(C)Nc2c(C(=O)Nc3cccc(C)c3)cnn2C1c1ccccc1C (stereo unspecified),"inconclusive [inhibitor, full curve]",–
CCCCOC(=O)c1c(C)oc2ccc(NS(=O)(=O)c3ccc(F)cc3C)cc12,"inconclusive [inhibitor, single point]",–
COC(=O)c1nnn(-c2ccc(Cl)cc2)c1C(=O)OC,"inconclusive [inhibitor, partial curve, poor fit]",–

SMILES,Potency,"activity change, negative = inhibition"
O=C(CN1CCCN(Cc2cccc(F)c2)S1(=O)=O)Nc1ccc2c(c1)OCCO2,"inconclusive [inhibitor, single point]",–
COc1ccc(CNC(=O)c2cc3c(=O)[nH]c4ccccc4c3n2C)c(OC)c1,"inconclusive [inhibitor, single point]",–
CCc1ccc(NC(=O)c2ccc(F)c(S(=O)(=O)N3CCc4ccccc4C3)c2)cc1,inactive,–
COc1ccc(OC)c(NS(=O)(=O)c2ccc3c(c2)CCCN3C(=O)C2CCC2)c1,inactive,–
CCC(C)(NC(=O)C(CCC(N)=O)NC(=O)C1CC(O)CN1C(=O)C(C)(C)NC(=O)C(C)(C)NC(=O)C(CC(C)C)NC(=O)CNC(=O)C(NC(=O)C(C)(C)NC(=O)C(C)(C)NC(=O)C(C)(C)NC(=O)C(Cc1ccccc1)NC(C)=O)C(C)C)C(=O)N1CC(O)CC1C(=O)NC(C)(C)C(=O)NC(CO)Cc1ccccc1 (stereo unspecified),–,inactive: -5.23% [at 13.5 µM]
Oc1cccc(-c2nc(-c3cccs3)c(-c3cccs3)[nH]2)c1,"inconclusive [inhibitor, single point]",–
CCc1ccc(NC(=O)c2cc3c(=O)n(Cc4cccs4)ccc3nc2C)cc1,"inconclusive [inhibitor, partial curve, poor fit]",–
COc1ccc(Cl)cc1NC(=O)CN(c1cc(C)cc(C)c1)S(=O)(=O)c1c(C)n[nH]c1C,"inconclusive [inhibitor, single point]",–
Cc1cc(OCCCSc2nc(-c3ccc(C(C)(C)C)cc3)nc3cc(=O)[nH]n23)ccc1Cl,"inconclusive [inhibitor, partial curve, poor fit]",–
Cc1cc(C)c2c(-n3cccc3)c(C(=O)NCCc3ccc(Cl)cc3)sc2n1,inactive,–
O=C(Cc1ccccc1)N(Cc1cccnc1)c1nc2ccc(F)cc2s1,–,inconclusive: -33.2% [inhibitor]
O=C(CSc1nc(-c2ccccc2)[nH]c1-c1ccccc1)Nc1ccc2c(c1)OCCO2,"inconclusive [inhibitor, single point]",–
CCC(C)NC(=O)c1sc2nc(C)c(C(=O)Nc3ccc(C)cc3C)c(-c3ccc(Cl)cc3)c2c1N (stereo unspecified),"inconclusive [inhibitor, single point]",–
O=S(=O)(c1ccccc1)N1CCC(c2ccncc2)CC1,inactive,–
CCOC(=O)c1c(NC(=O)CS(=O)(=O)c2ccc(C)cc2)sc2c1CCC(C)C2 (stereo unspecified),"inconclusive [inhibitor, partial curve, poor fit]",–
CC1CCN(c2nnc(-n3cccc3CNc3cccc(F)c3)s2)CC1,inactive,–
COc1cc2ccccc2cc1C(=O)N1CCN(c2nc3c(C)cc(C)cc3s2)CC1,"inconclusive [inhibitor, single point]",–
O=C(c1ccc(C#Cc2cccc(F)c2)cn1)N1CC2CC2C1 (stereo unspecified),inactive,–
CC1CCN(S(=O)(=O)c2cn(CC(=O)Nc3ccc(F)c(Cl)c3)c(=O)c3ccccc23)CC1,"inconclusive [inhibitor, partial curve, poor fit]",–
Cc1ccc(NC(=O)CCc2c(C)nc3c(-c4ccccc4)c(C)nn3c2C)c(C)c1,inactive,–
CCCN1C(=O)C(O)(CC(=O)c2ccc(CC)cc2)c2cc(Br)ccc21 (stereo unspecified),"inconclusive [inhibitor, single point]",–

SMILES,Potency,"activity change, negative = inhibition"
C[n+]1cc(NC(=O)c2cccc(C(=O)Nc3cc4ccccc4[n+](C)c3)n2)cc2ccccc21,"inconclusive [activator, partial curve]",–
CCOc1ccc(CC(=O)Nc2ccc3c(c2)N(C)C(=O)c2ccccc2S3)cc1OCC,"inconclusive [inhibitor, single point]",–
C[C@]12CC[C@@H]3c4ccc(O[C@@H]5O[C@H](C(=O)O)[C@@H](O)[C@H](O)[C@H]5O)cc4CC[C@H]3[C@@H]1CCC2=O,inactive,–
CCN(c1ccccc1)S(=O)(=O)c1ccc2[nH]cc(C(=O)NC3CCCCC3)c(=O)c2c1,inactive,–
CCOC(=O)C1CCN(c2c(C(=O)c3ccc(OCC)cc3)cnc3ccc(OC)cc23)CC1,"inconclusive [inhibitor, partial curve]",–
CN(CC(=O)Nc1cccc(Cl)c1)S(=O)(=O)c1ccc2[nH]c3c(c2c1)CCCC3,"inconclusive [inhibitor, partial curve, poor fit]",–
COc1ccc2c(c1)cc(CNc1ccc(OC)c(OC)c1)c(=O)n2CC(=O)Nc1ccc(F)cc1,"inconclusive [inhibitor, partial curve]",–
O=c1cc(-c2ccccc2)nc(SCc2nc(-c3ccc(C(F)(F)F)cc3)no2)[nH]1,"inconclusive [inhibitor, partial curve, poor fit]",–
COc1ccc(-c2cnc(-c3cccc4c3-c3ccccc3C4=O)o2)cc1,inactive,–
COc1ccccc1CN1C(=O)C(=O)c2cccc(C)c21,inactive,–
CC/C(=C(\c1ccc(O)cc1)c1ccc(OCCNC)cc1)c1ccccc1,inactive,–
Cc1ccc(S(=O)(=O)NCC(Nc2cccc(Cl)c2)c2ccccc2)cc1 (stereo unspecified),"inconclusive [inhibitor, single point]",–
O=C(Nc1cccc(C(=O)Nc2ccc(S(=O)(=O)O)c3cc(S(=O)(=O)O)cc(S(=O)(=O)O)c23)c1)Nc1cccc(C(=O)Nc2ccc(S(=O)(=O)O)c3cc(S(=O)(=O)O)cc(S(=O)(=O)O)c23)c1,active: 28.2 µM,–
COc1cc2nc(C3CC3)nc(N3CCN(c4ccccc4OC)CC3)c2cc1OC,inactive,–
COc1ccc(-c2cc3nc(C)c(CCC(=O)N4CCN(c5ccccc5F)CC4)c(C)n3n2)c(OC)c1,"inconclusive [inhibitor, single point]",–
O=C(Cn1ncc2c1-c1ccccc1OC2)N1CCN(c2ccccc2F)CC1,inactive,–
CCOC(=O)c1cccc(NC(=O)CN2C(=O)c3ccccc3Sc3ncccc32)c1,inactive,–
O=C(CSc1c2c(nc3ccc(Cl)cc13)CCCC2)N1CCN(c2cccc(Cl)c2)CC1,"inconclusive [inhibitor, partial curve, poor fit]",–
O=C(/C=C/c1ccc(O)cc1)c1ccc(O)cc1O,"inconclusive [inhibitor, single point]",–

# From PubChem BioAssay AID1347055 (National Center for Advancing Translational Sciences (NCATS), 2019)
